# Where a name gives a salt, the structure may show the parent alone. ± gives the standard deviation of the averaged measurements. The full ranking holds about 3,200 compounds; the median of “nuclei count (viability) relative to DMSO” is about 99, and the lowest 2% start at about 16. The list shows a part of the results.
# Tested on: U2OS
# Assay: nuclei count (viability) relative to DMSO (% of DMSO); higher = more viable cells
# Settings: 10 µM; 24 h
# Description: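 Primary image-based screen in U2OS cells: compounds at 10 uM for 24 h, then a 1 h o-propargyl-puromycin (OPP) pulse, click labelling, and high-throughput microscopy. Mean cytoplasmic OPP intensity and nuclei count were normalised to DMSO wells within each plate (DMSO = 100) and averaged over triplicate plates.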
row,Compound,nuclei count
1,CCN(CC)C(=O)c1ccc(C2=CC3(CCNCC3)Oc3cccc(O)c32)cc1,99.3
2,O=C(CCCN1CCC2(CC1)C(=O)N(Cc1cccc(F)c1)CN2c1ccccc1)c1ccc(F)cc1 [3'-Fluorobenzylspiperone maleate],29.4
3,C=C(C)CN1CC[C@@]23c4c5ccc(O)c4O[C@H]2c2[nH]c4ccccc4c2C[C@]3(O)C1C5 [SDM25N hydrochloride],105
4,C[C@]12CCC(=O)C(O)=C1CC[C@@H]1[C@@H]2CC[C@]2(C)C(=O)CC[C@@H]12 [Formestane],96.5 ± 10
5,CNC(C)(C)Cc1ccccc1 [Mephentermine hemisulfate],91.9
6,c1ccc(C2CC2)c(OCC2=NCCN2)c1 [Cirazoline hydrochloride],98.2
7,CN1[C@@H]2CC[C@H]1C[C@@H](OC(=O)C(CO)c1ccccc1)C2 (some centres not stated) [Atropine sulfate monohydrate],94.5
8,CN1[C@@H]2CC[C@H]1C[C@@H](OC(=O)C(CO)c1ccccc1)C2 (some centres not stated) [Atropine],96.2
9,CC(C)C[C@H]1C(=O)N2CCC[C@H]2[C@]2(O)O[C@](NC(=O)[C@@H]3C=C4c5cccc6[nH]c(Br)c(c56)C[C@H]4N(C)C3)(C(C)C)C(=O)N12 [Bromocriptine mesylate],98.7
10,CC(C)C[C@H]1C(=O)N2CCC[C@H]2[C@]2(O)O[C@](NC(=O)[C@@H]3C=C4c5cccc6[nH]c(Br)c(c56)C[C@H]4N(C)C3)(C(C)C)C(=O)N12 [Bromocryptine mesylate],90.9
11,c1ccc(CCCN2CCN(CCOC(c3ccccc3)c3ccccc3)CC2)cc1,99.2
12,C#CCOC(=O)C1=CCCN(C)C1 [Arecaidine propargyl ester tosylate],89
13,O=C(Cc1ccc(Cl)c(Cl)c1)N1CCCCC1CN1CCCC1 (configuration not stated),97.3
14,CCC1=C[C@H]2CN3CCc4c([nH]c5ccccc45)[C@](C(=O)OC)(C2)[C@H]13 [Catharanthine],97.6
15,CC(C)NCC(O)c1ccc(N)c(C#N)c1 (configuration not stated) [Cimaterol],80.2
16,CC[C@@H]1[C@@H](C)O[C@@](O)([C@@H](C)[C@H](O)[C@H](C)[C@H]2OC(=O)/C=C/C=C/[C@H](C)[C@@H]([C@@H](C)[C@@H](O)[C@H](C)[C@@]3(O)C[C@@H](O[C@H]4C[C@H](O)[C@H](O)[C@H](C)O4)[C@H](CC)[C@@H](C)O3)OC(=O)/C=C/C=C/[C@@H]2C)C[C@H]1O[C@H]1C[C@H](O)[C@H](O)[C@H](C)O1 [Azalomycin-B],107

row,Compound,nuclei count
1,"c1ccc(CC(c2ccccc2)N2CCCCC2)cc1 (racemic) [(±)-1-(1,2-Diphenylethyl)piperidine maleate]",103
2,CCc1c(C(=O)C(N)=O)c2c(OCC(=O)O)cccc2n1Cc1ccccc1,106
3,"CC(=O)[C@H]1CC[C@H]2[C@@H]3CC[C@@H]4CC(=O)CC[C@]4(C)[C@H]3CC[C@]12C [5b-Pregnan-3,20-dione]",100
4,CCNCC(O)c1cccc(O)c1 (configuration not stated) [Etilefrine hydrochloride],104
5,Clc1cccc(SC2CCNCC2)n1 [Anpirtoline hydrochloride],83.8
6,CCOC(=O)c1ncc2[nH]c3ccc(OCc4ccccc4)cc3c2c1COC,91
7,CC(C)(N)Cc1ccccc1 [Phentermine hydrochloride],90.2
8,NP(N)(=O)NC(=O)c1ccc(F)cc1 [Flurofamide],99.5
9,COc1ccc2[nH]cc(C3=CCNCC3)c2c1,96.9
10,O=C(O)CCC(CP(=O)(O)O)C(=O)O (configuration not stated) [PMPA (NAALADase inhibitor)],98.6
11,CC(C)(C)OC(=O)c1ncn2c1[C@@H]1CCCN1C(=O)c1c(Br)cccc1-2 [Bretazenil],92.2
12,CN(C)C(=O)Oc1cccc([N+](C)(C)C)c1 [Neostigmine bromide],94.1
13,Cc1onc(O)c1C[C@H](N)C(=O)O,102
14,CNC(=O)Oc1ccc2c(c1)[C@]1(C)CCN(C)[C@@H]1N2C [Eserine hemisulfate salt],96.1
15,COc1ccc(C(CN(C)C)C2(O)CCCCC2)cc1 (configuration not stated) [Venlafaxine],110
16,CN1[C@@H]2CC[C@H]1CC(OC(=O)N1Cc3ccccc3NC1=O)C2 (some centres not stated) [DAU 5884 hydrochloride],102

# From the supplement of paper PMC8183993
